Measurements taken from the supplement of paper PMC10441789.
This is one part of the list. Antibody binding of pooled human sera (four to six donors per pool; dilution not stated) to peptides of the Trypanosoma cruzi antigen TSSA on microarrays. Quantile-normalised fluorescence in arbitrary units, mean of duplicate arrays; higher = more binding. No active / inactive call. The uninfected pools are read here as the healthy donors of the same country. The strongest signals lie near the top of the scale (about 60,000).

System: pooled sera of uninfected people, Colombia
Experiment: antibody binding signal (normalised fluorescence) (arbitrary fluorescence units); higher = stronger serum antibody binding to peptide
Experimental: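 Microarray of 15-residue peptides over residues 30-55 of Trypanosoma cruzi TSSAII, each with 1 to 10 substitutions at naturally variable positions, probed with one serum pool per country.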

Row | Sequence | antibody binding signal
1 | GTENKPAAGGAPSQS | 190
2 | GKDNKTATGGTPSQP | 182
3 | TENKTAAGGTPSPPG | 305
4 | PPSGKDKKAAAGGAP | 322
5 | DNKPAAGGAPSPSGA | 226
6 | PSGKEKKAATGGAPS | 299
7 | TENKTAAGEAPSPSG | 163
8 | DKKTATGETPSQPGA | 186
9 | STPPSGTENKTATGE | 449
10 | PSGTENKTATGETPS | 357
11 | KDKKAAAGGTPSPPG | 109
12 | GTEKKTAAGGAPSQS | 203
13 | EKKPATGEAPSPSGA | 270
14 | PSGKDKKTAAGEAPS | 571
15 | TDKKAATGEAPSPPG | 481
16 | TDKKTAAGETPSPPG | 675
17 | TDKKPATGETPSQSG | 157
18 | GKDKKAATGEAPSQS | 261
19 | GTDKKTATGGTPSPS | 683
20 | PPSGKDKKPAAGEAP | 262

Row | Sequence | antibody binding signal
21 | GKDKKPAAGGAPSPS | 100
22 | KKPATGGAPSPSGAS | 96.5
23 | KKPAAGGTPSQSGAS | 106
24 | TEKKPATGEAPSQPG | 249
25 | SGTDNKTAAGGAPSP | 293
26 | KENKAAAGGAPSPSG | 116
27 | ENKPATGETPSPSGA | 115
28 | NKTAAGEAPSPSGAS | 330
29 | GTENKAAAGGAPSQS | 201
30 | SGTDNKPAAGETPSQ | 272
31 | GKENKAAAGEAPSQP | 126
32 | GKEKKPATGGTPSQS | 108
33 | SGKDKKAATGEAPSP | 279
34 | PSGKDNKTATGGTPS | 152
35 | PPSGKENKPAAGEAP | 932
36 | TDNKAAAGEAPSPPG | 80.9
37 | TENKPAAGGAPSPSG | 214
38 | PPSGTDKKPATGGAP | 544
39 | KENKTAAGGTPSQSG | 95
40 | GTENKTAAGGTPSQS | 321
